Measured values: article PMC6005513
Where a chain is given by its changes, count along the chain named. Results are given in words; binding and its absence hold for the method and conditions named. Some binding calls cover weakened binding; strength is not graded here.

Tests used:
Assay in all cases: binding of fluorescently labelled peptide to transfected cells, plate fluorescence scan; 10 nM myr-preS1-Al633 peptide in DMEM, 20 min, 37°C, on NTCP/Ntcp-transfected HEK293 cells in 24-well plates; washed with DMEM 2 min at 37°C; plates scanned at room temperature (Typhoon FLA 7000, 633 nm), total signal per area; only the binder purified
[1] = molecular target: orangutan (Pongo abelii) Ntcp, wild type (orangutan (Pongo abelii)) (UniProt Q14973)
[2] = molecular target: T1, Chlorocebus aethiops (grivet) Ntcp R158G (Chlorocebus aethiops)
T1 sequence: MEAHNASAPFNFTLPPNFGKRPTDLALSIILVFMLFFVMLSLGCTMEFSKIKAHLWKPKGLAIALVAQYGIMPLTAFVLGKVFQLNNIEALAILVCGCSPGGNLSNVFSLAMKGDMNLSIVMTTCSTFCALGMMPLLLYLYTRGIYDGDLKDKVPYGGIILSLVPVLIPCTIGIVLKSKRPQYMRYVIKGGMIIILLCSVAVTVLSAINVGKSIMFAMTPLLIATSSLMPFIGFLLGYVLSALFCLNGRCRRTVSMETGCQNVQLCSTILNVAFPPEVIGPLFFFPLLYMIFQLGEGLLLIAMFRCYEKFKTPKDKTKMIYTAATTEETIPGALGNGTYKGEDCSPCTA

human NTCP G158R (human) = molecular target: T2, human NTCP G158R (human) (UniProt Q14973)
T2 sequence: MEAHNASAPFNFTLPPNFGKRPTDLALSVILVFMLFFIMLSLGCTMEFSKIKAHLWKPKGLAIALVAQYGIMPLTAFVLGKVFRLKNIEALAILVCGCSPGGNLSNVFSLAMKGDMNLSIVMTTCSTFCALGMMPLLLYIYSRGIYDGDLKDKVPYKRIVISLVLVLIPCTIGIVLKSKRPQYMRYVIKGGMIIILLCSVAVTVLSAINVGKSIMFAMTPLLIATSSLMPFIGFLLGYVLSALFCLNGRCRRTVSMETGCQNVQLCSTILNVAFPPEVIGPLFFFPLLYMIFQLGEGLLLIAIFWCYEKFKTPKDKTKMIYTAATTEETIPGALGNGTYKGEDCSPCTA

human NTCP G158N (human) = molecular target: T3, human NTCP G158N (human) (UniProt Q14973)
T3 sequence: T2 sequence with R158N

[3] = molecular target: T4, Chlorocebus aethiops (grivet) Ntcp, wild type (Chlorocebus aethiops)
T4 sequence: T1 sequence with G158R

[4] = molecular target: T5, Macaca mulatta (rhesus macaque) Ntcp R158G (Macaca mulatta)
T5 sequence: T1 sequence

[5] = molecular target: T6, Callithrix jacchus (common marmoset) Ntcp G158R (Callithrix jacchus) (UniProt F7HA36)
T6 sequence: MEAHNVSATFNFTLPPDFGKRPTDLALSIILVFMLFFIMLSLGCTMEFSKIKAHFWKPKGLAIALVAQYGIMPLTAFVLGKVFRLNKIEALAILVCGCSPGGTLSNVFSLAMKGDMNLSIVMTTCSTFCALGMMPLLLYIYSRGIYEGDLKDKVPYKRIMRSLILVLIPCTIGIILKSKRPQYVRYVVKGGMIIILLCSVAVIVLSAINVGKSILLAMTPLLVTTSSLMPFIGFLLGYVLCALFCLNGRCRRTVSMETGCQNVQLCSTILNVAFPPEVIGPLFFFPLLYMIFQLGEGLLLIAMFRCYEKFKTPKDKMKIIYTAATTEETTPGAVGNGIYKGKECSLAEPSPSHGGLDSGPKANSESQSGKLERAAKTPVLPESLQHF

HBV myr-preS1-Al633-peptide (from UniProt P03138 2-48)
binding [1]: binds | binding [2]: binds | binding (human NTCP G158R (human)): no binding (tested: 10 nM) | binding (human NTCP G158N (human)): no binding (tested: 10 nM) | binding [3]: no binding (tested: 10 nM) | binding [4]: binds | binding [5]: no binding (tested: 10 nM)
